System: subcutaneous H1975 tumors
Test: H1975 xenograft tumor growth in athymic nude mice (compounds 48 and 49)
Conditions: 1 mg/kg or 4 mg/kg daily intraperitoneally, 24 days

| Compound | H1975 xenograft tumor growth compared with the control group |
| --- | --- |
| Cc1oc2c(c1C(=O)NCCCn1ccnc1)C(=O)c1ccc(F)cc1C2=O [Compound 48, N-(3-(1H-imidazol-1-yl)propyl)-7-fluoro-2-methyl-4,9-dioxo-4,9-dihydronaphtho[2,3-b]furan-3-carboxamide] | marked reduction |
| Cc1c(C(=O)NCCCn2ccnc2)oc2c1C(=O)c1ccccc1C2=O [Compound 49, N-(3-(1H-imidazol-1-yl)propyl)-3-methyl-4,9-dioxo-4,9-dihydronaphtho[2,3-b]furan-2-carboxamide] | marked reduction |

Reference: US11919886B2, “4,9-dioxo-4,9-dihydronaphtho[2,3-B]furan-3-carboxamide derivatives and uses thereof for treating proliferative diseases and infectious diseases” (Academia Sinica, priority 2016, dated 2024)
